This passage reports survival results from PubChem BioAssay AID463173 (ICCB-Longwood Screening Facility, Harvard Medical School, 2010).

Out of some 52,000 compounds screened, about 4,300 (8.3%) were called active. Cut-off read from the data, not from the text of the source: active = survival mostly below about 52% (no sharp cut-off); inactive = mostly above about 56%. This is one part of the list.

This assay deals with DeltatarO mutant. Description: growth inhibition of S. aureus wild type versus tarO mutant, primary screen, teichoic acid synthesis inhibitors, RN4220, OD600 (AID 463173). The note with it: OD600, 18 h, stronger effect = lower value, screened at 18.75 µg/mL (by protocol).
As to `CC(/C=N/NC(=O)Cc1cccn1C)=C\c1ccco1`, the survival is inactive: 100%. As to `O=C(CSc1nnc(-c2cccs2)o1)Oc1ccccc1`, the survival was inactive: 69%. In the case of `COc1ccccc1NC(=O)NC1(C(=O)N2CCCCC2)CCCCC1` it was inactive: 85%. With `CCc1ccc(C(=O)c2cn(CC(=O)Nc3cc(C)ccc3C)c3nc(C)ccc3c2=O)cc1`, the survival is inactive: 97%. The figure for `CCN(CC)C(=O)c1c(-c2ccccc2)c(-c2ccccc2)nn(C)c1=O` is inactive: 48%; for `CCOc1ccc(C(=O)Nc2ccc3nc(SCCOc4ccccc4)sc3c2)cc1` it is inactive: 97%; for `CCc1ccc(-n2cnc3cc(C(=O)NCc4ccc(C)cc4)ccc32)cc1` it is inactive: 57%.

As to `CCOC(=O)c1c(C)[nH]c(CCC(=O)NCc2ccc(CC)cc2)c1C`, the survival was inactive: 96%. The figure for `CC(=O)c1cccc(NC(=O)Cn2nc(C)n3cccc3c2=O)c1` is inactive: 104%. As for `O=C(CSc1nnc(-c2ccccc2)o1)c1cccc([N+](=O)[O-])c1`, the survival was inactive: 135%. As to `CCN(CC)CCCNC(=O)c1ccc(-c2nc(CN3CCc4ccccc43)c(C)o2)cc1`, the survival was inactive: 65%.

On to `O=C(Cn1ncc2c3ccccc3n(Cc3ccc(Cl)cc3)c2c1=O)NCc1ccccn1`, for which the survival was inactive: 93%. Regarding `NC(=O)c1ccccc1NC(=O)c1ccc(-c2ccc(Br)cc2)o1`, the survival was inactive: 77%. In the case of `COC(=O)c1cc(S(=O)(=O)N2CCN(c3cccc(C)c3)C(C)C2)cn1C` (configuration not stated) it was inactive: 92%; in that of `O=C(NCCN1CCOCC1)c1ccncc1`, inactive: 96%; in that of `COc1ccc(-n2nc(C(=O)Nc3cccc(C(F)(F)F)c3)c3c4ccccc4n(C)c3c2=O)cc1`, inactive: 78%. In the case of `Cc1nn(CC(=O)NCc2ccccc2Cl)c(=O)c2nn(-c3ccccc3)c(C)c12` it was inactive: 124%; in that of `Cc1ccccc1NC(=O)CSC1=Nc2ccccc2C2=NC(CCC(=O)NCc3ccccc3)C(=O)N12` (configuration not stated), inactive: 89%; in that of `Cc1nc(CC(=O)Nc2ccc(N(C)C)cc2)cs1`, active: 45%. In the case of `CCOc1ccc(-c2nc(SCC(=O)NCCOC)c(-c3ccc(OC)c(OC)c3)[nH]2)cc1` it was inactive: 76%; in that of `CCc1ccc(-n2nc(C)c3c(C(=O)Nc4cc(OC)cc(OC)c4)cc(C)nc32)cc1`, inactive: 102%.

Turning to `COc1ccc(CNC(=O)Cn2c(SCC(=O)Nc3ccc(C)c(C)c3)nc3ccccc32)cc1`, the survival was inactive: 68%. On to `CSc1nc2sc3c(c2c(=O)n1-c1ccc(F)c(Cl)c1)CCN(C(C)=O)C3`, for which the survival is inactive: 71%. The figure for `Cc1cc(C)cc(NC(=O)CSc2nc(-c3cccc(Cl)c3)nc3c2Cc2c(CO)cnc(C)c2O3)c1` is inactive: 125%; for `CCOC(=O)NC1(C(F)(F)F)NC(=O)N(c2ccc(C)c(C)c2)C1=O` (configuration not stated) it is inactive: 79%. In the case of `O=C(CSC1=Nc2ccccc2C2=NC(Cc3ccccc3)C(=O)N12)Nc1ccccc1F` (configuration not stated) it was inactive: 79%; in that of `Cc1cc(C)cc(OCC(=O)Nc2ccc(S(=O)(=O)Nc3onc(C)c3C)cc2)c1`, inactive: 67%; in that of `CCC(C(=O)NC1CCCC1)N(Cc1ccc2c(c1)OCO2)C(=O)c1snc(C(N)=O)c1N` (configuration not stated), inactive: 93%. In the case of `COc1ccc(S(=O)(=O)NCCc2csc(-c3ccc(F)cc3)n2)cc1` it was inactive: 97%; in that of `NNC(=O)c1nsnc1-c1ccccc1O`, inactive: 73%.

Regarding `CN1C(=O)C(C)(C)c2cc(S(=O)(=O)NCc3ccc(C(=O)Nc4ccc(Cl)cc4)cc3)ccc21`, the survival was inactive: 64%. In the case of `Cc1cccc(NC(=O)N2CCC(CN3CCc4ccccc4C3)CC2)c1C` it was active: -2%; in that of `Cc1ccccc1-c1nnc(SCC(=O)Oc2c(C)cccc2C)o1`, inactive: 99%; in that of `Cc1cc(C)cc(N2C(=O)N(CC(=O)c3ccc(Br)cc3)c3ccccc3S2(=O)=O)c1`, inactive: 75%.

Regarding `COc1ccccc1CNC(=O)CN1C(=O)COc2ccc(S(=O)(=O)N3CCCCC3)cc21`, the survival was inactive: 60%. In the case of `O=S(=O)(NCc1cccc(Br)c1)c1ccc(-c2cc(C(F)(F)F)on2)s1` it was inactive: 54%. In the case of `CCN(CC)C(=O)c1sc2c(c1C)c(=O)n(-c1ccc(Cl)c(Cl)c1)c(=O)n2Cc1cc(=O)n2c(C)cccc2n1` it was active: 32%. As for `COC(=O)CN1C(=O)CSc2ccc(S(=O)(=O)N3CCOCC3)cc21`, the survival was inactive: 118%.

Take `Cc1ccc(N2C(=O)C3C4C=CC(CNC(=O)OCc5ccccc5)(O4)C3C2=O)cc1` (configuration not stated): the survival is inactive: 95%. For `COC(=O)c1sccc1S(=O)(=O)N(CC(=O)NCc1ccc(C)cc1)c1ccc(Cl)cc1`, the survival is inactive: 87%. In the case of `COc1ccc(C(=O)Nc2ccc3nc(SCC(=O)N4CCCc5ccccc54)sc3c2)cc1` it was inactive: 99%. Take `CCCCn1cc(S(=O)(=O)c2ccc(OC)cc2)c(=O)c2cc(F)c(N3CCCC3)cc21`: the survival was inactive: 87%. In the case of `Cc1ccc(-c2nc(C)c(CCNS(=O)(=O)c3ccccc3F)s2)cc1` it was inactive: 76%; in that of `COc1ccc(CCNC(=O)CCCn2c(=O)c3ccccc3n(Cc3ccccc3C)c2=O)cc1OC`, inactive: 85%; in that of `Cc1ccc(-n2ncc(C(=O)NCCN3CCc4ccccc4C3)c2C2CCN(C(=O)OC(C)(C)C)CC2)cc1`, inactive: 83%. Take `Cc1cccc(C)c1OCc1nc2c3cnn(-c4cccc(F)c4)c3ncn2n1`: the survival is inactive: 78%. In the case of `CCOC(=O)c1cc(S(=O)(=O)N2CCN(c3ccc(OC)cc3)CC2)[nH]n1`, the survival is inactive: 128%. In the case of `Cc1ccc(NC(=O)CSc2nncn2N)cc1C`, the survival is inactive: 108%. The figure for `COCCN(Cc1cc2cc(C)c(C)cc2nc1Cl)C(C)=O` is inactive: 62%; for `Cc1ccc(C(=O)Nc2c(C(=O)NCc3ccc(Cl)cc3)sc3nc(C)cc(C)c23)cc1` it is inactive: 59%. Take `CCC(C)(C)n1nnnc1CN(Cc1ccccc1)Cc1cc2cc(OC)ccc2[nH]c1=O`: the survival was inactive: 91%. The figure for `CCOC(=O)c1cccc(NC(=O)CN2C(=O)CC(C)(C)Sc3ccccc32)c1` is inactive: 94%; for `CCN(C(=O)c1oc2ccc(S(=O)(=O)N3CCCCCC3)cc2c1C)c1ccccc1` it is inactive: 124%; for `O=C1C(=O)N(C2CCN(S(=O)(=O)c3ccc(F)cc3)CC2)CCN1Cc1ccccc1` it is inactive: 120%. As for `COc1ccc(Cl)cc1NC(=O)CSc1nccn1Cc1ccco1`, the survival was inactive: 92%. In the case of `CN(CC(=O)Nc1cccc(C(F)(F)F)c1)S(=O)(=O)c1ccc2[nH]c3c(c2c1)CCCC3`, the survival is inactive: 94%. In the case of `CCc1ccc(CN2C(=O)c3ccccc3C2C(=O)NCCc2ccc(OC)c(OC)c2)cc1` (configuration not stated) it was inactive: 75%; in that of `Cc1csc2nc(COC(=O)c3ccccc3NC(=O)c3ccc(F)cc3)cc(=O)n12`, inactive: 55%. In the case of `COc1ccc(NC(=O)c2cc3c(=O)[nH]c4ccccc4c3n2C)cc1Cl` it was inactive: 81%; in that of `O=C(CN1CCOCC1)Nc1ccc(Cl)c(NC(=O)c2ccc(Cl)cc2)c1`, inactive: 95%.

On to `NC(=O)CSc1nnc(-c2ccccc2)n1-c1ccccc1`, for which the survival was inactive: 98%. Take `CCCN(C(=O)CCc1nc(-c2ccccc2F)no1)c1ccc(CC)cc1`: the survival was active: -7%. For the compound `Cc1ccccc1NC(=O)c1sc2nc3c(cc2c1N)CCCC3`, the survival is inactive: 64%. Consider `CCOc1cc2[nH]c(=O)n(Cc3ccc(C(=O)NCCN(CC)CC)cc3)c(=O)c2cc1OCC`, for which the survival was inactive: 67%. In the case of `Cc1ccc(C)c(N2CCN(C(=O)c3ccc(CS(=O)(=O)c4ccc(Br)cc4)o3)CC2)c1` it was inactive: 119%. The figure for `COc1ccc(CC(=O)NCc2nc3cccnc3n2Cc2ccc(F)cc2)cc1OC` is inactive: 102%. In the case of `Cc1ccc(CNC(=O)c2c3c(nc4ccccc24)C(=O)N(C2CCCCC2)C3)cc1` it was inactive: 91%; in that of `CCCCn1c2ccc(F)cc2c2nnc(SCCN(CC)CC)nc21`, inactive: 178%.

Turning to `COc1cccc(N2CCN(C3C(=O)c4ccccc4N3C(C)=O)CC2)c1` (configuration not stated), the survival was inactive: 95%. The figure for `COc1cccc(C2C(C(=O)Nc3ccc(C)cc3C)=C(C)Nc3c(C(=O)Nc4cccc(C)c4)cnn32)c1OC` (configuration not stated) is inactive: 94%; for `CCOc1ccc(OCC)c(NC(=O)CN(C)S(=O)(=O)c2ccc3c(c2)CCCC(=O)N3)c1` it is inactive: 90%. With `CC(Sc1nnc(-c2ccccc2)n1N)C(=O)O` (configuration not stated), the survival was inactive: 113%.

Take `Cc1cccc(OCC(=O)N(Cc2sccc2C)C2CCS(=O)(=O)C2)c1` (configuration not stated): the survival was inactive: 77%. On to `COc1ccc(N2CCN(C(=O)c3ccc(-c4nc(COc5ccccc5)c(C)o4)cc3)CC2)cc1`, for which the survival is inactive: 71%. The figure for `COc1ccccc1/C=C/c1nc(C#N)c(N(C)C)o1` is inactive: 86%; for `O=C(c1cc2ncc(Br)cn2n1)N1CCCCC1` it is inactive: 64%; for `Cc1c2cnn(CC(=O)Nc3cccc(C(F)(F)F)c3)c(=O)c2c(C)n1Cc1ccccc1Cl` it is inactive: 71%.

As for `O=C1CC(Sc2ncccc2C(=O)O)C(=O)N1` (configuration not stated), the survival was inactive: 95%. The figure for `CCOC(=O)N1CCc2c(sc3c2c(=O)n(-c2ccc(CC)cc2)c(=O)n3CC(=O)c2ccc(F)cc2)C1` is inactive: 80%. Take `COc1cc(C(=O)Nc2ccc3nc(SCc4ccccc4)sc3c2)cc(OC)c1OC`: the survival is inactive: 80%. In the case of `Cc1ccc(C(=O)NCC(c2cccs2)S(=O)(=O)c2cccs2)cc1` (configuration not stated) it was inactive: 79%; in that of `CCC(Sc1nncn2c1cc1occc12)C(=O)Nc1ccc(C)c(Cl)c1` (configuration not stated), active: 36%. In the case of `CCN(C(=O)CSc1nc2ccccc2n1Cc1cc(C)ccc1C)c1ccccc1` it was inactive: 81%. In the case of `Cc1c2cnn(CC(=O)NC(C)C)c(=O)c2c(C)n1Cc1ccccc1Cl` it was inactive: 84%; in that of `CC(C)(C)OC(=O)N1CCC(c2c(C(=O)N3CCc4ccccc4C3)cnn2-c2ccc(F)cc2)CC1`, inactive: 87%; in that of `Cc1ccccc1OCCn1c(CCNC(=O)C(C)(C)C)nc2ccccc21`, inactive: 82%. `CC1=C(c2ccc(C)c(C)c2)S(=O)(=O)N=C1N1CCC(C(=O)NCc2ccc(C)o2)CC1`: the survival was inactive: 86%.
